# In the supplement of paper PMC12217912:
# Some of the results follow. The full chains were built here from the parent and the listed change. Values near 0.05 are background.
# B1: TEV protease; numbered along this chain (parent)
# chain: MGESLFKGPRDYNPISSSICHLTNESDGHTTSLYGIGFGPFIITNKHLFRRNNGTLVVQSLHGVFKVKDTTTLQQHLVDGRDMIIIRMPKDFPPFPQKLKFREPQREERICLVTTNFQTKSMSSMVSDTSCTFPSGDGIFWKHWIQTKDGQCGSPLVSTRDGFIVGIHSASNFTNTNNYFTSVPKNFMELLTNQEAQQWVSGWRLNADSVLWGGHKVFMVKPEEPFQPVKEATQL
# Variants of: B1
# Experiment: raw area under fraction-flipped curve 0-4 h after induction (AUC4h, not background-subtracted), DNA-recorder readout of cleavage of the substrate (dimensionless); higher = more cleavage of the substrate by the protease variant
# Settings: temperature: 34 °C; time window: 0-4 h after rhamnose induction
# Description: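 In vivo DNA recorder in E. coli TOP10(DE3) ΔrhaA at 34 °C. Each TEVp single-site mutant (parent TEVp 0) is paired with a single-site variant of the 7-mer TEVs (canonical ENLYFQ|S). The substrate sits between flexible linkers in a Bxb1-sfGFP-TEVs-SsrA fusion, so cleavage stabilises Bxb1 and speeds flipping of a recombination array, read by NGS. The value is the raw area under the fraction-flipped curve over 0-4 h after rhamnose induction (AUC4h), with ≥20 reads per time point. It is not background-subtracted; inactive controls average about 0.047.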
# 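Note: Bxb1 expression induced with 0.2% (w/v) L-rhamnose at OD600 near 0.5, cultures sampled hourly, flipped fraction per protease–substrate barcode pair counted by paired-end Illumina sequencing.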
Variant,area with substrate ENLAFQS,area with substrate ENLCFQS,area with substrate ENLDFQS,area with substrate ENLEFQS,area with substrate ENLFFQS,area with substrate ENLGFQS,area with substrate ENLHFQS,area with substrate ENLIFQS,area with substrate ENLKFQS,area with substrate ENLLFQS,area with substrate ENLMFQS,area with substrate ENLNFQS,area with substrate ENLQFQS,area with substrate ENLRFQS,area with substrate ENLSFQS,area with substrate ENLVFQS,area with substrate ENLWFQS,area with substrate ENLPFQS,area with substrate ENLTFQS
MGESLFKGPRDYNPISSSICHLTNESDGHTTSLYGIGFGPFIITNKHLCRRNNGTLVVQSLHGVFKVKDTTTLQQHLVDGRDMIIIRMPKDFPPFPQKLKFREPQREERICLVTTNFQTKSMSSMVSDTSCTFPSGDGIFWKHWIQTKDGQCGSPLVSTRDGFIVGIHSASNFTNTNNYFTSVPKNFMELLTNQEAQQWVSGWRLNADSVLWGGHKVFMVKPEEPFQPVKEATQL [F49C],0.0568,0.067,0.0619,0.0367,0.0663,0.07,0.0605,0.0614,0.0532,0.0219,0.0455,0.0567,0.0549,0.0613,0.043,0.0698,0.0536,,
MGESLFKGPRDYNPISSSICHLTNESDGHTTSLYGIGFGPFIITNKHLFRRNNGTLVKQSLHGVFKVKDTTTLQQHLVDGRDMIIIRMPKDFPPFPQKLKFREPQREERICLVTTNFQTKSMSSMVSDTSCTFPSGDGIFWKHWIQTKDGQCGSPLVSTRDGFIVGIHSASNFTNTNNYFTSVPKNFMELLTNQEAQQWVSGWRLNADSVLWGGHKVFMVKPEEPFQPVKEATQL [V58K],0.0462,0.0541,0.0495,,0.0557,,,0.053,0.0678,,,,,,0.0348,0.0574,,,
MGESLFKGPRDYNPISSSICHLTNESDGHTTSLYGIGFGPFIPTNKHLFRRNNGTLVVQSLHGVFKVKDTTTLQQHLVDGRDMIIIRMPKDFPPFPQKLKFREPQREERICLVTTNFQTKSMSSMVSDTSCTFPSGDGIFWKHWIQTKDGQCGSPLVSTRDGFIVGIHSASNFTNTNNYFTSVPKNFMELLTNQEAQQWVSGWRLNADSVLWGGHKVFMVKPEEPFQPVKEATQL [I43P],0.0581,0.0391,0.0462,0.0359,0.0315,0.0558,0.0342,,0.04,0.0549,,0.0523,,0.0436,0.0494,0.0435,0.0471,0.0421,
MGESLFKGPRDYNPISSSICHLTNESDGHTTSLYGIGFGPFITTNKHLFRRNNGTLVVQSLHGVFKVKDTTTLQQHLVDGRDMIIIRMPKDFPPFPQKLKFREPQREERICLVTTNFQTKSMSSMVSDTSCTFPSGDGIFWKHWIQTKDGQCGSPLVSTRDGFIVGIHSASNFTNTNNYFTSVPKNFMELLTNQEAQQWVSGWRLNADSVLWGGHKVFMVKPEEPFQPVKEATQL [I43T],0.0546,0.0474,0.058,,0.0708,0.0367,0.0576,,0.0538,,0.0609,0.0585,,0.0613,0.0594,0.094,,0.0411,0.0599
MGESLFKGPRDYNPISSSICHLTNESDGHTTSLYGIGFGPFIITNKHLFRRNNGTLVVYSLHGVFKVKDTTTLQQHLVDGRDMIIIRMPKDFPPFPQKLKFREPQREERICLVTTNFQTKSMSSMVSDTSCTFPSGDGIFWKHWIQTKDGQCGSPLVSTRDGFIVGIHSASNFTNTNNYFTSVPKNFMELLTNQEAQQWVSGWRLNADSVLWGGHKVFMVKPEEPFQPVKEATQL [Q59Y],0.106,0.0611,0.0495,,0.101,0.0703,0.0636,,0.0868,0.0654,0.127,0.0918,0.0692,0.0714,0.0617,0.084,0.0572,0.0466,
MGESLFKGPRDYNPISSSICHLTNESDGHTTSLYGIGFGPFIITNLHLFRRNNGTLVVQSLHGVFKVKDTTTLQQHLVDGRDMIIIRMPKDFPPFPQKLKFREPQREERICLVTTNFQTKSMSSMVSDTSCTFPSGDGIFWKHWIQTKDGQCGSPLVSTRDGFIVGIHSASNFTNTNNYFTSVPKNFMELLTNQEAQQWVSGWRLNADSVLWGGHKVFMVKPEEPFQPVKEATQL [K46L],0.055,,0.0595,0.0596,0.0636,0.0566,0.0562,0.0851,0.0616,0.0559,,0.0633,0.0417,0.0588,0.0589,0.0638,,0.0594,
MGESLFKGPRDYNPISSSICHLTNESDGHTTSLYGIGFGPFIICNKHLFRRNNGTLVVQSLHGVFKVKDTTTLQQHLVDGRDMIIIRMPKDFPPFPQKLKFREPQREERICLVTTNFQTKSMSSMVSDTSCTFPSGDGIFWKHWIQTKDGQCGSPLVSTRDGFIVGIHSASNFTNTNNYFTSVPKNFMELLTNQEAQQWVSGWRLNADSVLWGGHKVFMVKPEEPFQPVKEATQL [T44C],0.0651,0.0607,0.0559,0.0818,0.0902,0.0532,0.0678,0.068,0.0854,0.076,0.0629,0.0623,0.062,0.072,0.067,0.0914,0.0658,0.0616,
MGESLFKGPRDYNPISSSICHLTNESDGHTTSLYGIGFGPFIIYNKHLFRRNNGTLVVQSLHGVFKVKDTTTLQQHLVDGRDMIIIRMPKDFPPFPQKLKFREPQREERICLVTTNFQTKSMSSMVSDTSCTFPSGDGIFWKHWIQTKDGQCGSPLVSTRDGFIVGIHSASNFTNTNNYFTSVPKNFMELLTNQEAQQWVSGWRLNADSVLWGGHKVFMVKPEEPFQPVKEATQL [T44Y],0.0481,0.0432,0.0497,0.013,,0.053,0.0384,0.0395,0.0448,0.0465,,0.0463,0.0487,0.0512,0.0508,,0.0548,,
MGESLFKGPRDYNPISSSICHLTNESDGHTTSLYGIGFGPFIITNKILFRRNNGTLVVQSLHGVFKVKDTTTLQQHLVDGRDMIIIRMPKDFPPFPQKLKFREPQREERICLVTTNFQTKSMSSMVSDTSCTFPSGDGIFWKHWIQTKDGQCGSPLVSTRDGFIVGIHSASNFTNTNNYFTSVPKNFMELLTNQEAQQWVSGWRLNADSVLWGGHKVFMVKPEEPFQPVKEATQL [H47I],0.0318,0.0611,0.0462,,0.0511,0.0609,0.0593,0.0651,0.0624,0.0557,,0.0676,0.0612,,0.0636,,0.0751,0.063,
